{"source": "the supplement of paper PMC8728848", "assay_in_all_cases": "glycan array binding signal (z-score within array); higher = stronger binding", "settings_in_all_cases": "glycan notation: IUPAC condensed, linker removed", "key": {"[1]": {"target": "Fuc(a1-2)Gal(b1-4)[Fuc(a1-3)]GlcNAc", "procedure,_shortened": "(§1)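 Negative Z-scores can be read as non-binding. The Z-score is calculated within each array and then averaged across arrays of one protein sequence at different concentrations or buffers and across linkers. Arrays, 3228 in all, were curated from the Consortium for Functional Glycomics database and kept only where the protein sequence was available.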"}, "[2]": {"target": "Fuc(a1-2)Gal(b1-4)[Fuc(a1-3)]GlcNAc(b1-2)Man(a1-3)[Fuc(a1-2)Gal(b1-4)[Fuc(a1-3)]GlcNAc(b1-2)Man(a1-6)]Man(b1-4)GlcNAc(b1-4)[Fuc(a1-6)]GlcNAc", "procedure,_shortened": "as §1"}, "[3]": {"target": "Fuc(a1-2)Gal(b1-4)[Fuc(a1-3)]GlcNAc(b1-2)[Fuc(a1-2)Gal(b1-4)[Fuc(a1-3)]GlcNAc(b1-4)]Man(a1-3)[Fuc(a1-2)Gal(b1-4)[Fuc(a1-3)]GlcNAc(b1-2)Man(a1-6)]Man(b1-4)GlcNAc(b1-4)GlcNAc", "procedure,_shortened": "as §1"}, "[4]": {"target": "Fuc(a1-2)Gal(b1-4)[Fuc(a1-3)]GlcNAc(b1-3)Gal(b1-4)[Fuc(a1-3)]GlcNAc", "procedure,_shortened": "as §1"}, "[5]": {"target": "Fuc(a1-2)Gal(b1-4)[Fuc(a1-3)]GlcNAc(b1-3)Gal(b1-4)[Fuc(a1-3)]GlcNAc(b1-3)Gal(b1-4)[Fuc(a1-3)]GlcNAc", "procedure,_shortened": "as §1"}, "[6]": {"target": "Fuc(a1-2)Gal(b1-4)[Fuc(a1-3)]GlcNAc(b1-3)GalNAc", "procedure,_shortened": "as §1"}, "[7]": {"target": "Fuc(a1-2)Gal(b1-4)[Fuc(a1-3)]GlcNAc(b1-3)[Neu5Ac(a2-6)Gal(b1-4)GlcNAc(b1-6)]Gal(b1-4)Glc", "procedure,_shortened": "as §1"}, "[8]": {"target": "Fuc(a1-2)Gal3S(b1-4)GlcNAc", "procedure,_shortened": "as §1"}, "[9]": {"target": "Fuc(a1-2)Gal6S(b1-3)GlcNAc", "procedure,_shortened": "as §1"}, "[10]": {"target": "Fuc(a1-2)Gal6S(b1-3)GlcNAc6S", "procedure,_shortened": "as §1"}, "Fuc(a1-2)Gal6S(b1-4)Glc": {"target": "Fuc(a1-2)Gal6S(b1-4)Glc", "procedure,_shortened": "as §1"}, "[11]": {"target": "Fuc(a1-2)Gal6S(b1-4)Glc6S", "procedure,_shortened": "as §1"}, "[12]": {"target": "Fuc(a1-2)Gal6S(b1-4)GlcNAc", "procedure,_shortened": "as §1"}, "Fuc(a1-2)GlcNAc": {"target": "Fuc(a1-2)GlcNAc", "procedure,_shortened": "as §1"}, "Fuc(a1-2)[Gal(a1-3)]Gal": {"target": "Fuc(a1-2)[Gal(a1-3)]Gal", "procedure,_shortened": "as §1"}, "[13]": {"target": "Fuc(a1-2)[Gal(a1-3)]Gal(b1-3)GalNAc", "procedure,_shortened": "as §1"}, "[14]": {"target": "Fuc(a1-2)[Gal(a1-3)]Gal(b1-3)GalNAc(b1-3)Gal(a1-4)Gal(b1-4)Glc", "procedure,_shortened": "as §1"}, "[15]": {"target": "Fuc(a1-2)[Gal(a1-3)]Gal(b1-3)GlcNAc", "procedure,_shortened": "as §1"}, "[16]": {"target": "Fuc(a1-2)[Gal(a1-3)]Gal(b1-3)GlcNAc(b1-2)Man(a1-3)[Fuc(a1-2)[Gal(a1-3)]Gal(b1-3)GlcNAc(b1-2)Man(a1-6)]Man(b1-4)GlcNAc(b1-4)GlcNAc", "procedure,_shortened": "as §1"}, "[17]": {"target": "Fuc(a1-2)[Gal(a1-3)]Gal(b1-3)GlcNAc(b1-2)Man(a1-3)[Fuc(a1-2)[Gal(a1-3)]Gal(b1-3)GlcNAc(b1-2)Man(a1-6)]Man(b1-4)GlcNAc(b1-4)[Fuc(a1-6)]GlcNAc", "procedure,_shortened": "as §1"}, "[18]": {"target": "Fuc(a1-2)[Gal(a1-3)]Gal(b1-3)GlcNAc(b1-3)GalNAc", "procedure,_shortened": "as §1"}, "[19]": {"target": "Fuc(a1-2)[Gal(a1-3)]Gal(b1-3)GlcNAc(b1-6)GalNAc", "procedure,_shortened": "as §1"}, "[20]": {"target": "Fuc(a1-2)[Gal(a1-3)]Gal(b1-4)Glc", "procedure,_shortened": "as §1"}, "[21]": {"target": "Fuc(a1-2)[Gal(a1-3)]Gal(b1-4)GlcNAc", "procedure,_shortened": "as §1"}, "[22]": {"target": "Fuc(a1-2)[Gal(a1-3)]Gal(b1-4)GlcNAc(b1-2)Man", "procedure,_shortened": "as §1"}, "[23]": {"target": "Fuc(a1-2)[Gal(a1-3)]Gal(b1-4)GlcNAc(b1-2)Man(a1-3)[Fuc(a1-2)[Gal(a1-3)]Gal(b1-4)GlcNAc(b1-2)Man(a1-6)]Man(b1-4)GlcNAc(b1-4)GlcNAc", "procedure,_shortened": "as §1"}, "[24]": {"target": "Fuc(a1-2)[Gal(a1-3)]Gal(b1-4)GlcNAc(b1-2)Man(a1-3)[Fuc(a1-2)[Gal(a1-3)]Gal(b1-4)GlcNAc(b1-2)Man(a1-6)]Man(b1-4)GlcNAc(b1-4)[Fuc(a1-6)]GlcNAc", "procedure,_shortened": "as §1"}, "[25]": {"target": "Fuc(a1-2)[Gal(a1-3)]Gal(b1-4)GlcNAc(b1-3)GalNAc", "procedure,_shortened": "as §1"}, "[26]": {"target": "Fuc(a1-2)[Gal(a1-3)]Gal(b1-4)GlcNAc(b1-6)GalNAc", "procedure,_shortened": "as §1"}, "[27]": {"target": "Fuc(a1-2)[Gal(a1-3)]Gal(b1-4)[Fuc(a1-3)]Glc", "procedure,_shortened": "as §1"}, "[28]": {"target": "Fuc(a1-2)[Gal(a1-3)]Gal(b1-4)[Fuc(a1-3)]GlcNAc", "procedure,_shortened": "as §1"}, "[29]": {"target": "Fuc(a1-2)[Gal(a1-3)]Gal(b1-4)[Fuc(a1-3)]GlcNAc(b1-3)GalNAc", "procedure,_shortened": "as §1"}, "[30]": {"target": "Fuc(a1-2)[Gal(a1-4)]Gal(b1-4)GlcNAc", "procedure,_shortened": "as §1"}, "[31]": {"target": "Fuc(a1-2)[GalNAc(a1-3)]Gal", "procedure,_shortened": "as §1"}, "[32]": {"target": "Fuc(a1-2)[GalNAc(a1-3)]Gal(b1-3)GalNAc(a1-3)[Fuc(a1-2)]Gal(b1-4)GlcNAc", "procedure,_shortened": "as §1"}, "[33]": {"target": "Fuc(a1-2)[GalNAc(a1-3)]Gal(b1-3)GalNAc(b1-3)Gal(a1-4)Gal(b1-4)Glc", "procedure,_shortened": "as §1"}, "[34]": {"target": "Fuc(a1-2)[GalNAc(a1-3)]Gal(b1-3)GlcNAc", "procedure,_shortened": "as §1"}, "[35]": {"target": "Fuc(a1-2)[GalNAc(a1-3)]Gal(b1-3)GlcNAc(b1-2)Man(a1-3)[Fuc(a1-2)[GalNAc(a1-3)]Gal(b1-3)GlcNAc(b1-2)Man(a1-6)]Man(b1-4)GlcNAc(b1-4)GlcNAc", "procedure,_shortened": "as §1"}}, "note": "This is one part of the list."}
{"binder": "Gal 8 (Homo sapiens) (protein) MLSLNNLQNIIYNPVIPYVGTIPDQLDPGTLIVICGHVPSDADRFQVDLQNGSSVKPRADVAFHFNPRFKRAGCIVCNTLINEKWGREEITYDTPFKREKSFEIVIMVLKDKFQVAVNGKHTLLYGHRIGPEKIDTLGIYGKVNIHSIGFSFSSDLQSTQASSLELTEISRENVPKSGTPQLQTVSPSWDLQGHGSETFCSVLWTRVFLEIAFCRPIGLTVASFQSLPFAARLNTPMGPGRTVVVKGEVNANAKSFNVDLLAGKSKDIALHLNPRLNIKAFVRNSFLQESWGEEERNITSFPFSPGMYFEMIIYCDVREFKVAVNGVHSLEYKHRFKELSSIDTLEINGDIHLLEVRSW", "values": [{"measurement": "glycan array binding signal (z-score)", "setting": "[1]", "result": -0.387}, {"measurement": "glycan array binding signal (z-score)", "setting": "[2]", "result": -0.354}, {"measurement": "glycan array binding signal (z-score)", "setting": "[3]", "result": -0.355}, {"measurement": "glycan array binding signal (z-score)", "setting": "[4]", "result": -0.339}, {"measurement": "glycan array binding signal (z-score)", "setting": "[5]", "result": -0.38}, {"measurement": "glycan array binding signal (z-score)", "setting": "[6]", "result": -0.354}, {"measurement": "glycan array binding signal (z-score)", "setting": "[7]", "result": -0.356}, {"measurement": "glycan array binding signal (z-score)", "setting": "[8]", "result": -0.354}, {"measurement": "glycan array binding signal (z-score)", "setting": "[9]", "result": -0.353}, {"measurement": "glycan array binding signal (z-score)", "setting": "[10]", "result": -0.353}, {"measurement": "glycan array binding signal (z-score)", "setting": "Fuc(a1-2)Gal6S(b1-4)Glc", "result": -0.333}, {"measurement": "glycan array binding signal (z-score)", "setting": "[11]", "result": -0.322}, {"measurement": "glycan array binding signal (z-score)", "setting": "[12]", "result": -0.363}, {"measurement": "glycan array binding signal (z-score)", "setting": "Fuc(a1-2)GlcNAc", "result": -0.751}, {"measurement": "glycan array binding signal (z-score)", "setting": "Fuc(a1-2)[Gal(a1-3)]Gal", "result": -0.354}, {"measurement": "glycan array binding signal (z-score)", "setting": "[13]", "result": -0.261}, {"measurement": "glycan array binding signal (z-score)", "setting": "[14]", "result": -0.297}, {"measurement": "glycan array binding signal (z-score)", "setting": "[15]", "result": 1.79}, {"measurement": "glycan array binding signal (z-score)", "setting": "[16]", "result": 0.879}, {"measurement": "glycan array binding signal (z-score)", "setting": "[17]", "result": 0.461}, {"measurement": "glycan array binding signal (z-score)", "setting": "[18]", "result": 0.029}, {"measurement": "glycan array binding signal (z-score)", "setting": "[19]", "result": 0.407}, {"measurement": "glycan array binding signal (z-score)", "setting": "[20]", "result": 4.4}, {"measurement": "glycan array binding signal (z-score)", "setting": "[21]", "result": 2.59}, {"measurement": "glycan array binding signal (z-score)", "setting": "[22]", "result": 0.115}, {"measurement": "glycan array binding signal (z-score)", "setting": "[23]", "result": 4.31}, {"measurement": "glycan array binding signal (z-score)", "setting": "[24]", "result": 2.46}, {"measurement": "glycan array binding signal (z-score)", "setting": "[25]", "result": 0.006}, {"measurement": "glycan array binding signal (z-score)", "setting": "[26]", "result": -0.355}, {"measurement": "glycan array binding signal (z-score)", "setting": "[27]", "result": -0.354}, {"measurement": "glycan array binding signal (z-score)", "setting": "[28]", "result": -0.374}, {"measurement": "glycan array binding signal (z-score)", "setting": "[29]", "result": -0.356}, {"measurement": "glycan array binding signal (z-score)", "setting": "[30]", "result": -0.385}, {"measurement": "glycan array binding signal (z-score)", "setting": "[31]", "result": -0.371}, {"measurement": "glycan array binding signal (z-score)", "setting": "[32]", "result": 1.72}, {"measurement": "glycan array binding signal (z-score)", "setting": "[33]", "result": -0.211}, {"measurement": "glycan array binding signal (z-score)", "setting": "[34]", "result": 1.81}, {"measurement": "glycan array binding signal (z-score)", "setting": "[35]", "result": 2.32}]}
